Assay results as given in PubChem BioAssay AID686970 (National Center for Advancing Translational Sciences (NCATS), 2013).
The whole screen tested about 360,000 compounds, of which about 6,000 (1.7%) were called active. Inconclusive means that the source gave no clear call. Such entries were picked first, then a sample of the others. The call rests on the fitted dose curve; in most records, active means well fitted cell-killing curve with a large enough effect; inconclusive means small, poorly fitted or top-dose-only effect, or effect the other way; inactive means flat fitted curve, though single readings scatter. Potencies of inconclusive entries are left out as doubtful fits.

Assay: qHTS for induction of synthetic lethality in tumor cells producing 2HG: qHTS for the HT-1080-NT fibrosarcoma cell line;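 further: NT is the 2HG producing partner of a matched IDH1 knockdown line; nearly all actives have a fitted effect of over 55% in size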;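 on activity, negative = less viability: 0% = DMSO-treated cells and -100% = media-only wells without cells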
Conditions: HT-1080-NT fibrosarcoma viability, CellTiter-Glo ATP luminescence, 48 h; activity, negative = less viability: at 46.1 µM (top of the series) unless noted
Method in brief: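 A 48-hour cytotoxicity screen used HT-1080-NT cells plated 2 hours before compound delivery. ATP-based CellTiter-Glo luminescence measured viability, normalized to DMSO and no-cell controls.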
Potency means the concentration at half of the fitted maximal effect; tags describe the fitted curve by direction and shape.

Row | Structure (SMILES) | Potency | activity, negative = less viability
1 | COc1ccc(/C=N/c2c(-c3ccc(OC)cc3)nc3n2CCS3)cc1 | inactive | 
2 | COC(=O)c1ccccc1-c1c2ccc(=N)cc-2oc2cc(N)ccc12 | active: 6.51 µM | 
3 | C/C(N)=C(/C#N)C(=O)CSc1nc2ccccc2c(=O)n1Cc1ccc(C)cc1 | inconclusive [cytotoxic, single point] | 
4 | CCOC(=O)COc1cccc2c(=O)n(CC(=O)NCc3ccc(F)cc3)ccc12 | active: 1.16 µM | 
5 | COc1ccc(Cc2nnc(NC(=O)c3cc(OC)c(OC)c(OC)c3)s2)cc1 | inconclusive [cytotoxic, partial curve] | 
6 | C=CCn1c(SCC(=O)Nc2sccc2C(N)=O)nc2ccccc2c1=O | inconclusive [cytotoxic, partial curve] | 
7 | O=[N+]([O-])c1ccccc1N/N=C/c1c[nH]c2ccccc12 | inconclusive [cytotoxic, partial curve] | 
8 | CSc1cccc(NS(=O)(=O)c2ccc(C(C)=O)cc2)c1 |  | inconclusive: -18.5% [cytotoxic]
9 | Cc1ccccc1NC(=O)CSc1n[nH]c(-c2ccccn2)n1 | inconclusive [cytotoxic, full curve, poor fit] | 
10 | CCc1ccc(CNC(=O)C2CC(=O)N(CCc3ccc(C)cc3)C2)cc1 (stereo not given) | inconclusive [cytotoxic, single point] | 
11 | CCOC(=O)c1cc(-c2ccccc2)sc1NC(=O)CN1C(=O)NC(CC)(c2ccccc2)C1=O (stereo not given) | inconclusive [cytotoxic, single point] | 
12 | CC(C)(C)c1ccccc1NC(=O)c1ccc(-n2cncn2)c([N+](=O)[O-])c1 | inactive | 
13 | C/C(=N\NC(=S)Nc1ccc(C(C)C)cc1)c1ccc2c(c1)OCO2 | inactive | 
14 | O=P(c1ccccc1)(c1ccccc1)c1cc(Br)cc(Br)c1OCCO | inactive | 
15 | N#Cc1ccc(-c2cccs2)nc1SCc1cccnc1 | inconclusive [cytotoxic, full curve] | 
16 | Cc1oc(-c2ccc(Cl)cc2)nc1CN1CCC(C(=O)NCCCN2CCCC(C)C2)CC1 (stereo not given) | active: 13 µM | 
17 | Cn1c(NCc2ccccc2F)nc2cc(-c3ccsc3)sc2c1=O | inconclusive [cytotoxic, single point] | 
18 | COc1ccccc1C(=O)C1CCCN(Cc2cn[nH]c2C2CCCCC2)C1 (stereo not given) | inactive | 
19 | CCCCNC(=O)C1CCN(Cc2ccc(OCc3ccccc3)cc2)CC1 | inconclusive [cytotoxic, partial curve] | 
20 | O=C(c1ccco1)N1CCN(C(=O)c2cnn3c(C(F)(F)F)cc(-c4cccs4)nc23)CC1 | inactive | 
